# Results as given in the supplement of paper PMC9446081.
# Hit rate of the full screen: of about 39,000 compounds, about 220 (0.56%) showed activity. Some of the results follow.
# Test system: Escherichia coli K-12 BW25113
# Assay: relative growth (OD600 normalised to plate interquartile mean) (fraction); higher = less growth inhibition, active = 0.2 or less
# Settings: 50 µM; LB; incubation time: overnight (16-24 h)
# 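Note: static incubation at 37 °C against the wild-type strain, values averaged over two biological replicates.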
row,Compound,relative growth
1,C[C@@H]1CCCCO[C@H](CN(C)S(=O)(=O)c2cn(C)cn2)[C@H](C)CN([C@@H](C)CO)C(=O)c2cc(NS(C)(=O)=O)ccc2O1,inactive: 0.997
2,C[C@H](CO)N1C[C@H](C)[C@@H](CN(C)Cc2ccc(Cl)c(Cl)c2)OCCCC[C@H](C)Oc2ccc(NC(=O)c3ccncc3)cc2C1=O,inactive: 1
3,CN1CCN(C(=O)C[C@H]2CC[C@@H]3[C@H](COC[C@@H](O)CN3C(=O)Nc3ccc4c(c3)OCO4)O2)CC1,inactive: 0.988
4,COC(=O)C(CC#Cc1ccc2c(c1)[C@]1(C(=O)N2)[C@H](C(=O)N2CCc3cc(OC)c(OC)cc3C2)[C@H]2C(=O)O[C@H](c3ccccc3)[C@H](c3ccccc3)N2[C@@H]1c1ccc(OCCO)cc1)C(=O)OC,inactive: 1.1
5,C[C@@H]1CN([C@@H](C)CO)C(=O)c2cc(NC(=O)Nc3ccc4c(c3)OCO4)ccc2O[C@@H](C)CCCCO[C@H]1CN(C)C(=O)Nc1ccccc1,inactive: 1.02
6,CCN(CC)c1ccc(N2CC=C[C@@]34O[C@@H]5/C=C\CCCOC(=O)[C@@H]5[C@H]3C(=O)N(CCCCCCO)[C@@H]4C2=O)cc1,inactive: 1
7,CO[C@H]1CN(C)C(=O)c2cc(NC(=O)NC3CCCCC3)ccc2OC[C@@H](C)N(CCc2ccccc2)C[C@@H]1C,inactive: 1.03
8,COc1ccc(C2=C(N)C(=O)NC2=O)cc1OC,inactive: 0.93
9,C[C@@H]1CCCCO[C@H](CN(C)C(=O)Nc2ccc(C(F)(F)F)cc2)[C@@H](C)CN([C@H](C)CO)C(=O)c2cc(NC(=O)Nc3ccccc3)ccc2O1,inactive: 0.999
10,Cc1ccc(C(=O)c2ccc(CC(=O)[O-])n2C)cc1.[Na+],inactive: 1.07
11,CC(C)NC(=O)Nc1ccc2c(c1)C(=O)N([C@H](C)CO)C[C@H](C)[C@H](CN(C)Cc1ccc(Oc3ccccc3)cc1)O2,inactive: 1
12,O=C1c2ccc3c4c(ccc(c24)C(=O)N1CCCCO)C(=O)N(CCCCO)C3=O,inactive: 0.977
13,O=C(C[C@@H]1CC[C@H]2[C@@H](COC[C@H](O)CN2C(=O)Nc2ccc(Cl)c(Cl)c2)O1)NCc1ccc(Cl)c(Cl)c1,inactive: 0.966
14,C[C@@H]1CN([C@@H](C)CO)C(=O)Cc2cc(NS(=O)(=O)c3cn(C)cn3)ccc2O[C@H]1CN(C)C(=O)NC1CCCCC1,inactive: 0.971
15,C[C@@H]1CN([C@@H](C)CO)C(=O)c2cc(NC(=O)Cc3ccccc3)ccc2O[C@@H](C)CCCCO[C@@H]1CN(C)C(=O)CCC(F)(F)F,inactive: 1.02
16,COc1ccc(S(=O)(=O)Nc2cccc3c2O[C@H](CN(C)S(=O)(=O)c2cn(C)cn2)[C@H](C)CN([C@H](C)CO)C3=O)cc1,inactive: 1.01
17,C[C@@H]1CCCCO[C@@H](CN(C)S(=O)(=O)c2cccs2)[C@@H](C)CN([C@H](C)CO)C(=O)c2cc(NS(=O)(=O)c3cn(C)cn3)ccc2O1,inactive: 0.997
18,COc1ccc(NC(=O)Nc2ccc3c(c2)C(=O)N([C@@H](C)CO)C[C@H](C)[C@H](CN(C)CC2CCCCC2)O3)cc1,inactive: 0.992
19,CN(C)C(=O)C[C@@H]1C=C[C@H](NC(=O)C2CCOCC2)[C@H](CO)O1,inactive: 0.99
20,C[C@@H]1CN([C@@H](C)CO)C(=O)c2cc(NS(=O)(=O)c3cccs3)ccc2O[C@@H]1CN(C)Cc1ccncc1,inactive: 0.993

row,Compound,relative growth
1,C[C@@H]1CN([C@@H](C)CO)C(=O)c2cc(NS(=O)(=O)c3cn(C)cn3)ccc2O[C@@H](C)CCCCO[C@@H]1CN(C)C(=O)c1ccncc1,inactive: 0.975
2,O=C(C[C@H]1C[C@H]2c3cc(NS(=O)(=O)c4ccc(F)cc4)ccc3O[C@H]2[C@@H](CO)O1)NCc1cccc(F)c1,inactive: 0.997
3,C[C@@H]1CCCCO[C@@H](CN(C)CC2CCCCC2)[C@H](C)CN([C@H](C)CO)C(=O)c2cc(NC(=O)Nc3ccc4c(c3)OCO4)ccc2O1,inactive: 0.977
4,C=C[C@]1(C)C[C@@H](OC(=O)CS[C@@H]2C[C@H]3CC[C@@H](C2)N3C)[C@]2(C)[C@H](C)CC[C@]3(CCC(=O)[C@H]32)[C@@H](C)[C@@H]1O,inactive: 0.269
5,O=C(O)[C@H]1C[C@H]2C(=O)NCC(=O)N2[C@H]1c1ccc(O)cc1,inactive: 0.997
6,CN(C)CC(=O)N[C@H]1CC[C@@H](CCn2cc(CN(C)C)nn2)O[C@H]1CO,inactive: 0.985
7,C[C@H]1CCCCO[C@H](CN(C)C(=O)NC2CCCCC2)[C@@H](C)CN([C@@H](C)CO)C(=O)c2cc(NC(=O)Nc3ccc(C(F)(F)F)cc3)ccc2O1,inactive: 1.02
8,O=C(O)C1=CC(O)C(O)C(O)C1 (stereo not drawn),inactive: 1.03
9,COc1ccc(NC(=O)N(C)C[C@H]2OCCCC[C@@H](C)Oc3ccc(NC(=O)CCC(F)(F)F)cc3C(=O)N([C@H](C)CO)C[C@H]2C)cc1,inactive: 0.971
10,COc1ccc(S(=O)(=O)Nc2ccc3c(c2)C(=O)N([C@H](C)CO)C[C@@H](C)[C@@H](CN(C)Cc2ccc(C(F)(F)F)cc2)OCCCC[C@H](C)O3)cc1,inactive: 1.02
11,CN(C)CC(=O)N[C@H]1C=C[C@@H](CC(=O)O)O[C@@H]1CO,inactive: 1.02
12,C[C@@H]1CCCCO[C@@H](CN(C)CC2CCCCC2)[C@H](C)CN([C@@H](C)CO)C(=O)c2cc(NC(=O)C3CCCCC3)ccc2O1,inactive: 0.987
13,CC(C)C(=O)NS(=O)(=O)c1ccc(N)cc1,inactive: 1
14,C[C@@H]1CN([C@H](C)CO)S(=O)(=O)c2ccc(C#Cc3cccnc3)cc2O[C@@H]1CN(C)C(=O)CN(C)C,inactive: 1.03
15,COC(=O)C(CC#Cc1ccc2c(c1)[C@]1(C(=O)N2)[C@H](c2ccccc2OCCO)N2[C@H](c3ccccc3)[C@H](c3ccccc3)OC(=O)[C@H]2[C@@H]1C(=O)Nc1nc2ccccc2s1)C(=O)OC,inactive: 1.02
16,CCCOc1cc(N)ccc1C(=O)OCCN(CC)CC.Cl,inactive: 1
17,C[C@H]1CN([C@@H](C)CO)C(=O)c2cc(NS(=O)(=O)c3ccc(F)cc3)ccc2O[C@H]1CN(C)Cc1ccc(Oc2ccccc2)cc1,inactive: 0.99
18,C[C@H](CO)N1C[C@H](C)[C@H](CN(C)S(=O)(=O)c2cccc(F)c2)Oc2ncc(-c3cccc(C(=O)N(C)C)c3)cc2C1=O,inactive: 1
19,C[C@@H]1CCCCO[C@H](CN(C)C(=O)NC2CCCCC2)[C@H](C)CN([C@@H](C)CO)C(=O)c2cc(NS(=O)(=O)c3cccs3)ccc2O1,inactive: 0.986
20,COc1ccc(CC(=O)c2ccc(O)cc2O)cc1,inactive: 0.907

row,Compound,relative growth
1,COc1ccc(-c2cc(=O)c3c(O)cc(OC)c(OC)c3o2)c(OC)c1,inactive: 0.987
2,COc1cccc(S(=O)(=O)N[C@@H]2CC[C@H](CC(=O)NC3CCC3)O[C@@H]2CO)c1,inactive: 0.986
3,Cc1noc(C)c1NC(=O)N(C)C[C@H]1OCCCC[C@@H](C)Oc2ccc(NC(=O)c3ccccc3)cc2C(=O)N([C@H](C)CO)C[C@@H]1C,inactive: 0.985
4,C[C@H](CO)N1C[C@H](C)[C@@H](CN(C)Cc2ccc(-c3ccccc3)cc2)Oc2c(NC(=O)NC3CCCCC3)cccc2C1=O,inactive: 0.893
5,COc1ccc(NC(=O)N(C)C[C@H]2OCCCC[C@H](C)Oc3ccc(NC(=O)C4CCCCC4)cc3C(=O)N([C@@H](C)CO)C[C@H]2C)cc1,inactive: 1.01
6,C[C@@H]1CN([C@@H](C)CO)C(=O)c2cc(NC(=O)C3CCCCC3)ccc2O[C@@H]1CN(C)Cc1ccc(C(=O)Nc2ccccc2N)cc1,inactive: 1.01
7,COc1cccc(S(=O)(=O)Nc2ccc3c(c2)[C@@H]2C[C@@H](CC(=O)NCc4ccccc4F)O[C@H](CO)[C@@H]2O3)c1,inactive: 0.99
8,COc1ccc(NC(=O)Nc2ccc3c(c2)C(=O)N([C@@H](C)CO)C[C@H](C)[C@@H](CN(C)Cc2ccccc2)OCCCC[C@H](C)O3)cc1,inactive: 0.968
9,COC(=O)Nc1nc2cc(C(=O)c3ccc(F)cc3)ccc2[nH]1,inactive: 1.18
10,C[C@@H]1CN([C@H](C)CO)C(=O)Cc2cc(NC(=O)CCCCCC(=O)Nc3ccccc3N)ccc2O[C@@H]1CN(C)C(=O)Nc1ccc(F)cc1,inactive: 0.977
11,Cc1noc(C)c1S(=O)(=O)Nc1ccc2c(c1)C(=O)N([C@@H](C)CO)C[C@H](C)[C@@H](CN(C)Cc1ccccc1)O2,inactive: 0.968
12,CN(C)CCCCNC(=O)[C@@H]1C[C@@H]2C(=O)NCC(=O)N2[C@@H]1c1cccc(OCCO)c1,inactive: 1.02
13,C[C@@H]1CN([C@@H](C)CO)C(=O)c2cc(NC(=O)Nc3cccc4ccccc34)ccc2O[C@@H](C)CCCCO[C@@H]1CN(C)Cc1ccc(C(F)(F)F)cc1,inactive: 1.03
14,CCCC(=O)C1(c2ccccc2)CCN(C(=O)[C@@H](Cc2ccc(OC)cc2)NC(=O)[C@@H](N)Cc2cncn2C)CC1,inactive: 1
15,C[C@@H]1CCCCO[C@@H](CN(C)CC2CC2)[C@@H](C)CN([C@H](C)CO)C(=O)c2cc(NC(=O)c3ccccc3)ccc2O1,inactive: 1.01
16,C[C@H](CO)N1C[C@H](C)[C@@H](CN(C)C(=O)NC2CCCCC2)Oc2ccc(NC(=O)C3CC3)cc2CC1=O,inactive: 1.02
17,Cc1ccc(S(=O)(=O)N(C)C[C@@H]2Oc3ncc(C#CCC(C)C)cc3C(=O)N([C@H](C)CO)C[C@H]2C)cc1,inactive: 1.04
18,C[C@@H]1CN([C@@H](C)CO)C(=O)c2cc(NC(=O)Cn3cnnn3)ccc2O[C@@H]1CN(C)Cc1ccc(C(=O)O)cc1,inactive: 0.989
